Assay results: paper PMC4336329 (PLoS ONE, 2015)
The campaign covered roughly 310,000 compounds. About 2,200 (0.71%) showed an effect of 50% or more. The effect is printed as a negative number. Some of the results follow.

molecular target: human ether-à-go-go-related gene (hERG) potassium channel (human, UniProt Q12809); test: primary screen, population patch clamp on CHO cells stably expressing hERG
Sequence (Q12809 whole entry, looked up): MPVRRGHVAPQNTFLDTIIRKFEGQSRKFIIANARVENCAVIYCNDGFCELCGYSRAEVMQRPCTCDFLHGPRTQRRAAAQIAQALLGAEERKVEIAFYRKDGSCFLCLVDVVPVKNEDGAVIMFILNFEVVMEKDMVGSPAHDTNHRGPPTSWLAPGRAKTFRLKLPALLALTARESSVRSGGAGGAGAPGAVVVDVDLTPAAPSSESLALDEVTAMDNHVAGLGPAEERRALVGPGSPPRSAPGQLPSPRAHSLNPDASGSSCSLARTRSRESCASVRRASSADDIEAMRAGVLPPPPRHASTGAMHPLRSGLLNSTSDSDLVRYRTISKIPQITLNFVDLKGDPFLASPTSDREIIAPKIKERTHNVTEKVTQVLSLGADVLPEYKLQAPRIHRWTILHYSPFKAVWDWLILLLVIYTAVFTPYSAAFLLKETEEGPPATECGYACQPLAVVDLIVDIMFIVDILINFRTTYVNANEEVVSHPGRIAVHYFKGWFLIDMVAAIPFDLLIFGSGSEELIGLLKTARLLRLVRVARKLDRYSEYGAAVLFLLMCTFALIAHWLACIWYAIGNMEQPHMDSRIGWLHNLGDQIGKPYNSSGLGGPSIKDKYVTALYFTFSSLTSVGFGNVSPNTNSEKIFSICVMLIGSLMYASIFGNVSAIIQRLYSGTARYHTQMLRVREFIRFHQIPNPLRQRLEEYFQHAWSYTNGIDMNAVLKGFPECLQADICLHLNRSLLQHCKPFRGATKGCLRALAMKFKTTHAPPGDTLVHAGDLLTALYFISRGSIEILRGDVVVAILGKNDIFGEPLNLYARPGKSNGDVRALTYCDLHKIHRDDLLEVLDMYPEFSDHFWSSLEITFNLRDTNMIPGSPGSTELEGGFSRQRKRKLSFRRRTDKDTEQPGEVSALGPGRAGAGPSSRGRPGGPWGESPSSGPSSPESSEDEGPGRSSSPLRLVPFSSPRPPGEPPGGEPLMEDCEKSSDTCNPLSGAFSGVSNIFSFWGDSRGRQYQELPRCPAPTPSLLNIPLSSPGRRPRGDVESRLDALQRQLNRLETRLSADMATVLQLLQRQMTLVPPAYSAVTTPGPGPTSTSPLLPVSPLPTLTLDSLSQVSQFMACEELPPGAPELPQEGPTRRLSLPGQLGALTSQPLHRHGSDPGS

Row | SMILES | hERG current change (%, negative = inhibition) at 1uM
1 | CC(=O)NCc1nc2ccccc2n1Cc1ccccc1F | 10.2%
2 | O=C(NC1=C(Nc2ccc(Cl)cc2)C(=O)c2ccccc2C1=O)c1ccccc1 | 5.97%
3 | O=C(Cn1sc2ccccc2c1=O)NC12CC3CC(CC(C3)C1)C2 | 13%
4 | O=C(c1cccc(Cl)c1)N1CCn2c1nc1ccccc12 | 6.26%
5 | CCN1C(=O)C2C(c3cccc(F)c3)NC(CC)(C(=O)OC)C2C1=O (centres unmarked) | 17.7%
6 | CCOc1ccc(CCNC(=O)COC(=O)CCc2cc(OC)c(OC)c(OC)c2)cc1OCC | -9.97%
7 | CCc1nc2ccccc2n1Cc1cc(=O)n2cc(C)ccc2n1 | 11.2%
8 | O=C(CN1CCCCC1)N/N=C/c1ccccc1OCc1ccccc1 | -0.21%
9 | CCN(Cc1ccccc1)C(=O)C1CCN(CC2CC=CCC2)CC1.O=C(O)C(=O)O (centres unmarked) | 0.726%
10 | CC(=O)Nc1ccc(S(=O)(=O)NNC(=S)NCc2ccco2)cc1 | 11.5%
11 | COCCN(C(=O)c1csnn1)C(C(=O)NC1CCCCC1)c1cccs1 (centres unmarked) | -8.97%
12 | COc1ccc(CN(C)C(=O)c2ccccc2Sc2ccccc2C#N)cc1OC | 7.45%
13 | Cc1ccc(/C=N/N2CCN(c3ccc(Cl)cc3)CC2)o1 | 11.4%
14 | O=C(O)CC(C(=O)N(c1ccccc1)c1ccccc1)N1CCOCC1 (centres unmarked) | 1.13%
15 | COc1cc2c(c(OC)c1OC)-c1c(cc3c(c1OC)OCO3)C1OC2[C@@H](C)[C@H]1C (some centres unmarked) | 9.89%
16 | COC(=O)C1C(O)=C(C=Nc2ccc3ccccc3c2)C(=O)CC1(C)C (centres unmarked) | 11.4%
17 | Cc1ccc(-n2c(C)nc3c(cnn3-c3ccccc3Cl)c2=O)cc1C | 14.7%
18 | O=C(CSc1nnc(CNC(=O)c2c(F)cccc2Cl)o1)NCc1ccc(F)cc1 | 9.08%
19 | COc1ccccc1CNC(=O)Cn1cc(Br)ccc1=O | 8.67%
20 | CCOc1ccc(NC(=O)N2CCC(NC(=O)C(Cc3ccc(OC)c(OC)c3)NC(C)=O)CC2)cc1 (centres unmarked) | 8.06%
21 | CCn1nc(C)c(/C=N/NC(=O)CSc2ccccn2)c1C | 10.3%
22 | O=C(CCc1nnc(CCCc2ccccc2)o1)NCCc1ccco1 | 6.06%

Row | SMILES | hERG current change (%, negative = inhibition) at 1uM
23 | CCOC(=O)CC(=O)CSc1nc(-c2cccnc2)ccc1C#N | 9.36%
24 | COCCNC(=O)Nc1ccc2nc(-c3ccco3)c(-c3ccco3)nc2c1 | 1.54%
25 | C=CCNC(=S)Nc1sc2c(c1C(=O)OCC)CCN(C(=O)OCC)C2 | 10.2%
26 | COc1ccc(/C=C/C(=O)N2CCCC2)cc1OC | 3.99%
27 | O=C(NC1CCCC1)C(c1ccccc1F)N(C(=O)Cc1cccs1)c1ccc2c(c1)OCCO2 (centres unmarked) | 5.88%
28 | Cc1ccc(NC(=O)CCNC(=O)c2ccc([N+](=O)[O-])cc2)cc1C | 9.2%
29 | Cc1ccc(NC(=O)C(C)OC(=O)/C=C/c2ccccc2)cc1S(=O)(=O)N1CCOCC1 (centres unmarked) | 8.54%
30 | Cc1cccc(N2C(=O)C(O)=C(C(=O)c3cccs3)C2c2ccc(C(C)C)cc2)n1 (centres unmarked) | 4.41%
31 | Cc1ccc(N2C(=O)CC(Sc3nc(-c4ccccc4)c4cc(Cl)ccc4n3)C2=O)c(C)c1 (centres unmarked) | 3.4%
32 | CN(/C=C/C(=O)C(F)(F)F)Cc1ccccc1 | 9.63%
33 | CSc1ccc(C#N)cc1NC(=O)c1ccc(Cl)cc1Cl | -1.58%
34 | O=S(=O)(c1cccc(-c2nnc3n2CCCCC3)c1)N1CCCC1 | 8.43%
35 | CCc1cccc(NC(=O)CN(C)S(=O)(=O)c2cccc3nsnc23)c1 | -0.523%
36 | CCOc1ccccc1NC(=O)COC(=O)C(Cc1ccccc1)NC(=O)c1ccco1 (centres unmarked) | 6.03%
37 | COCN(C#N)c1nc(OC)nc(OC)n1 | 14.7%
38 | CCOC(=O)c1ccc2c(c1)nc(C1CCN(S(=O)(=O)c3cccs3)CC1)n2CC | -12.3%
39 | Nc1nc(Cl)cc(Oc2ccccc2F)n1 | 10.3%
40 | CCc1ccc(CCN2C(=O)c3ccccc3C2=O)nc1 | -0.128%
41 | O=C(OCc1ccccc1)N1CCOCCN(C(=O)OCc2ccccc2)CCOCC1 | -7.02%
42 | COc1ccc(NC(=O)CCC(=O)OC(C(=O)c2ccccc2)c2ccccc2)cc1 (centres unmarked) | 8.31%
43 | COc1ccc(CC(C)N2CCN(c3ccccc3OC)CC2)cc1OC (centres unmarked) | -42.2%
44 | O=C(CC1CCCCC1)Nc1ncn[nH]1 | 8.98%

Row | SMILES | hERG current change (%, negative = inhibition) at 1uM
45 | CC1CN(C(=O)COC(=O)c2cc([N+](=O)[O-])ccc2Cl)CC(C)O1 (centres unmarked) | 9.39%
46 | COc1ccc(C(=O)O)cc1S(=O)(=O)Nc1ccc(Oc2ccccc2)cc1 | 5.45%
47 | CCN(c1ccc(NC(=O)COC(=O)c2cccs2)cc1)C(C)C | 9.23%
48 | CN(c1ccccc1)S(=O)(=O)c1cccc(NC(=O)c2cncc(Br)c2)c1 | -3.27%
49 | COc1ccc(NCc2nnc(SCC(=O)Nc3ccccc3)n2C)cc1 | 0.431%
50 | O=c1c(-c2ccccc2)nnc2sc(COc3ccc(Br)cc3)nn12 | 14.6%
51 | CCOc1ccccc1CN1CCC(CO)(CCOc2ccccc2)CC1 | -66.8%
52 | COc1cccc(C(=O)CN(C(=O)c2ccc(Cl)cc2Cl)N2C(=O)c3ccccc3C2=O)c1 | 8.71%
53 | Cc1ccc(N(CC(=O)NCCc2ccccc2)C(=O)CCC(=O)Nc2cc(C)ccn2)cc1 | 13.2%
54 | CC1=C(C(=O)OCCc2ccccc2)C(c2ccsc2)NC(=O)N1C (centres unmarked) | 11.1%
55 | CCCCOC(=O)CSCC(=O)Nc1cc(C)on1 | 11.5%
56 | CC(C)(C)NC(=O)C(=O)NNC(=O)c1cccc([N+](=O)[O-])c1 | 11.9%
57 | Cc1cc(C(=O)OCC(=O)N2CCc3ccccc32)c(C)o1 | 12.3%
58 | CCOCCn1ccc2c(OCC(=O)NCCc3ccc(OC)c(OC)c3)cccc2c1=O | 3.28%
59 | COC(=O)c1c(C)c(OC(=O)c2c(C)cc(O)c(C=O)c2O)cc(C)c1O | 18.3%
60 | CC(=NCc1cccnc1)c1c(O)n(C2CCCCC2)c(=O)[nH]c1=O | 0.173%
61 | CC(=O)c1ccc(Oc2cc(C(F)(F)F)cnc2C(N)=O)cc1 | 13.2%
62 | S=c1[nH]nc(COc2ccccc2)n1/N=C/c1ccc(Br)s1 | -9.79%
63 | CCS(=O)(=O)c1nc(S(=O)(=O)c2ccc(C)cc2)c(NCc2ccccn2)s1 | 6.35%
64 | CCOC(=O)C1=C(C)N=c2s/c(=C\c3ccc(OCC(=O)O)cc3)c(=O)n2C1c1ccc(OC(C)C)cc1 (centres unmarked) | 4.65%
65 | CCN(Cc1ccccc1)S(=O)(=O)c1ccc2c(c1)NC(=O)CC(=O)N2 | -10.3%
66 | O=C(NCc1cccnc1)c1cc(Sc2cccc(Cl)c2)nc2ccccc12 | 3.15%

Row | SMILES | hERG current change (%, negative = inhibition) at 1uM
67 | O=C(CSC1=NCCS1)N1CCOCC1 | 5.97%
68 | Nc1cc(=O)[nH]c(=O)n1CCc1ccccc1 | 16.3%
69 | C=CCNC(=O)COC(=O)CNC(=O)c1cc(Cl)cc([N+](=O)[O-])c1 | 3.83%
70 | COc1ccccc1C(=O)N(Cc1ccc(C)o1)C1CCS(=O)(=O)C1 (centres unmarked) | -4.14%
71 | O=C(CNCc1ccccc1)Nc1cccc(Cl)c1Cl.O=C(O)C(=O)O | 16.5%
72 | Cc1nnc(NC(=O)Cn2c(=O)sc3ccccc32)s1 | 11.9%
73 | CCC(C)NC(=O)C1CCCN(S(=O)(=O)c2ccc3c(c2)CC(C)N3C(=O)C2CC2)C1 (centres unmarked) | 8.11%
74 | CCCCOC(=O)c1ccc(N2C(=O)CC(N3CCN(C/C=C/c4ccccc4)CC3)C2=O)cc1 (centres unmarked) | -5.33%
75 | O=C(N/N=C/c1ccc(O)c([N+](=O)[O-])c1)C1CC1(c1ccccc1)c1ccccc1 (centres unmarked) | -9.01%
76 | Cc1cccc(NC(=O)C2CCN(C(=O)NC3CCCCC3)CC2)c1 | 12.7%
77 | CCOC(=O)N1CCN(CC(=O)Nc2c(C(=O)OC)[nH]c3ccc(Cl)cc23)CC1 | -13.9%
78 | O=C1c2ccccc2C(Nc2ccc(F)c(Cl)c2)N1c1ccccn1 (centres unmarked) | 17.9%
79 | Cc1ccc2[nH]c(=O)c(CN(Cc3cccs3)C(=S)NCc3ccco3)cc2c1 | 1.14%
80 | CN(c1ccccc1C(=O)Nc1ccc(F)c(Cl)c1)S(C)(=O)=O | 6.03%
81 | O=[N+]([O-])c1ccc(Cl)cc1N/N=C/c1ccncc1 | 11.3%
82 | CCn1cc(S(=O)(=O)Nc2cc(C(=O)OC)ccc2C)cn1 | -1.09%
83 | C/C(=N\NC(=S)NC1CCCCC1)c1cccc(C(F)(F)F)c1 | 14.3%
84 | O=C(Nc1nc(=S)ss1)c1c(F)cccc1F | 10.4%
85 | Cc1cc(=O)oc2cc(OCC(=O)OCC(=O)N(C)C3CCS(=O)(=O)C3)ccc12 (centres unmarked) | 6.15%
86 | Cc1ccc(C2C(C#N)=C(N)N(c3cccnc3)C3=C2C(=O)CCC3)c(C)c1 (centres unmarked) | 7.23%
